Results published in the supplement of paper PMC10369915.
Some of the results follow. Rule as the data show it: active = 3.2 or more and inactive = the rest. Most of these values are background signal.

B1: MYBPC3_Y1136 (peptide)
chain: IGNGYYFRVFS
B2: MYBPC3_Y1136_R1138H (peptide)
chain: IGNGYYFHVFS
B3: MYC_Y12_N11S (peptide)
chain: FTNRSYDLDYD
B4: MYC_Y12_N11S_YF (peptide)
chain: FTNRSYDLDFD
B5: MYC_Y12_YF (peptide)
chain: FTNRNYDLDFD
B6: MYC_Y16_YF (peptide)
chain: NFDLDYDSVQP
B7: MYD88_Y257_L252P (peptide)
chain: PIPIKYKAMKK
B8: MYEF2_Y164_D165H (peptide)
chain: ETMNKYHLSGR
B9: MYH4_Y820 (peptide)
chain: IFCIQYNIRAF
B10: MYH4_Y820_R823C (peptide)
chain: IFCIQYNICAF
B11: MYH6_Y1462_E1457K (peptide)
chain: KWKQKYEESQS
B12: MYH6_Y717 (peptide)
chain: PNRILYGDFRQ
B13: MYH7_Y103 (peptide)
chain: EPAVLYNLKDR
B14: MYH7_Y1375_T1377M (peptide)
chain: QWRTKYEMDAI
B15: MYH7_Y1488_S1491C (peptide)
chain: KLKNAYEECLE
B16: MYH7_Y162 (peptide)
chain: ISDNAYQYMLT
B17: MYH7_Y164 (peptide)
chain: DNAYQYMLTDR
B18: MYH7_Y1852_T1854M (peptide)
chain: IKELTYQMEED
B19: MYH7_Y266_I263M (peptide)
chain: ADMETYLLEKS

Molecular target: SHP2 C-SH2 domain E139D
Assay: enrichment score (SH2-bound / input frequency) (ratio); bacterial display of known human phosphotyrosine sites (pTyr-Var adds point mutants) read by sequencing; higher = stronger binding; tyrosines were phosphorylated by kinases first
Conditions: peptide library: pTyr-Var
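Also: displayed peptides selected on beads carrying the immobilized SH2 domain, with library peptides lacking any tyrosine serving as negative controls.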

| Binder | enrichment score |
| --- | --- |
| B1 | inactive: 0.556 |
| B2 | inactive: 1.52 |
| B3 | inactive: 0.67 |
| B4 | inactive: 0.737 |
| B5 | inactive: 0.891 |
| B6 | inactive: 0.685 |
| B7 | inactive: 1.19 |
| B8 | inactive: 0.623 |
| B9 | inactive: 2.54 |
| B10 | active: 4.92 |
| B11 | inactive: 1.54 |
| B12 | inactive: 0.982 |
| B13 | inactive: 1.08 |
| B14 | inactive: 1.1 |
| B15 | inactive: 0.913 |
| B16 | inactive: 1.14 |
| B17 | inactive: 0.744 |
| B18 | inactive: 0.61 |
| B19 | inactive: 0.901 |

Molecular target: SHP2 C-SH2 domain wild-type
Assay: as above
Conditions: peptide library: pTyr-Var

| Binder | enrichment score |
| --- | --- |
| B1 | inactive: 0.828 |
| B2 | inactive: 2.34 |
| B3 | inactive: 0.591 |
| B4 | inactive: 0.709 |
| B5 | inactive: 0.752 |
| B6 | inactive: 0.655 |
| B7 | inactive: 0.907 |
| B8 | inactive: 0.655 |
| B9 | inactive: 2.81 |
| B10 | active: 3.52 |
| B11 | inactive: 1.63 |
| B12 | inactive: 1 |
| B13 | inactive: 0.692 |
| B14 | inactive: 1.14 |
| B15 | inactive: 0.915 |
| B16 | inactive: 1.13 |
| B17 | inactive: 0.75 |
| B18 | inactive: 0.731 |
| B19 | inactive: 0.675 |

Molecular target: SHP2 N-SH2 domain L43F
Assay: as above
Conditions: peptide library: pTyr-Var

| Binder | enrichment score |
| --- | --- |
| B1 | inactive: 0.831 |
| B2 | inactive: 1.41 |
| B3 | inactive: 0.445 |
| B4 | inactive: 0.849 |
| B5 | inactive: 0.748 |
| B6 | inactive: 0.544 |
| B7 | inactive: 0.939 |
| B8 | inactive: 0.829 |
| B9 | inactive: 2.87 |
| B10 | active: 3.89 |
| B11 | inactive: 1.62 |
| B12 | inactive: 0.905 |
| B13 | inactive: 0.697 |
| B14 | inactive: 0.966 |
| B15 | inactive: 0.95 |
| B16 | inactive: 0.919 |
| B17 | inactive: 0.593 |
| B18 | inactive: 0.647 |
| B19 | inactive: 0.786 |

Molecular target: SHP2 N-SH2 domain T42A
Assay: as above
Conditions: peptide library: pTyr-Var

| Binder | enrichment score |
| --- | --- |
| B1 | inactive: 0.668 |
| B2 | inactive: 1.52 |
| B3 | inactive: 0.645 |
| B4 | inactive: 0.894 |
| B5 | inactive: 0.604 |
| B6 | inactive: 0.549 |
| B7 | inactive: 1.05 |
| B8 | inactive: 0.661 |
| B9 | inactive: 1.99 |
| B10 | active: 3.78 |
| B11 | inactive: 1.68 |
| B12 | inactive: 1.05 |
| B13 | inactive: 0.568 |
| B14 | inactive: 0.972 |
| B15 | inactive: 0.82 |
| B16 | inactive: 1.02 |
| B17 | inactive: 1.22 |
| B18 | inactive: 0.647 |
| B19 | inactive: 0.645 |

Molecular target: SHP2 N-SH2 domain T52S
Assay: as above
Conditions: peptide library: pTyr-Var

| Binder | enrichment score |
| --- | --- |
| B1 | inactive: 0.63 |
| B2 | inactive: 1.78 |
| B3 | inactive: 0.687 |
| B4 | inactive: 0.716 |
| B5 | inactive: 0.698 |
| B6 | inactive: 0.853 |
| B7 | inactive: 0.892 |
| B8 | inactive: 0.661 |
| B9 | inactive: 2.89 |
| B10 | active: 3.7 |
| B11 | inactive: 1.67 |
| B12 | inactive: 0.926 |
| B13 | inactive: 0.727 |
| B14 | inactive: 1.23 |
| B15 | inactive: 0.955 |
| B16 | inactive: 0.875 |
| B17 | inactive: 0.886 |
| B18 | inactive: 0.651 |
| B19 | inactive: 0.783 |

Molecular target: SHP2 N-SH2 domain wild-type
Assay: as above
Conditions: peptide library: pTyr-Var

| Binder | enrichment score |
| --- | --- |
| B1 | inactive: 0.814 |
| B2 | inactive: 1.58 |
| B3 | inactive: 0.615 |
| B4 | inactive: 0.842 |
| B5 | inactive: 0.826 |
| B6 | inactive: 0.811 |
| B7 | inactive: 1.36 |
| B8 | inactive: 0.878 |
| B9 | inactive: 2.54 |
| B10 | active: 3.82 |
| B11 | inactive: 1.55 |
| B12 | inactive: 0.945 |
| B13 | inactive: 0.594 |
| B14 | inactive: 1.03 |
| B15 | inactive: 0.938 |
| B16 | inactive: 0.696 |
| B17 | inactive: 0.709 |
| B18 | inactive: 0.906 |
| B19 | inactive: 0.772 |
